This assay has as its target GTPase KRas (Homo sapiens) (UniProt P01116). As to the kind of experiment: Covalent labelling of cysteine mutants by fragments, read by mass spectrometry (AID 2202238). Also noted: protein at 5 µM with 500 µM competing thiol for 1.5 h. The note with it: KRAS G12D cysteine mutants, disulfide tethering, MALDI-TOF labeling, stronger effect = higher value, fragment at 500 µM.
[1] abbreviates: measured here: G75C mutant labeling.
The mark [2] stands for this setting: measured here: H94C mutant labeling.
Where [3] appears, read: measured here: I36C mutant labeling.
Setting [4] is: measured here: L120C mutant labeling.
Setting [5] is: measured here: M67C mutant labeling.
Where [6] appears, read: measured here: M72C mutant labeling.
Setting [7] is: measured here: N86C mutant labeling.
Where [8] appears, read: measured here: P121C mutant labeling.
Setting [9] is: measured here: S122C mutant labeling.
[10] abbreviates: measured here: S136C mutant labeling.
[11] abbreviates: measured here: G60C mutant labeling.
[12] abbreviates: measured here: N26C mutant labeling.

The other results are listed elsewhere or left out. Shown are side measurements of this screen, not its main read-out; they come without a call.

Sequence of UniProt P01116 (P01116 whole entry, looked up, the tested form may be a part): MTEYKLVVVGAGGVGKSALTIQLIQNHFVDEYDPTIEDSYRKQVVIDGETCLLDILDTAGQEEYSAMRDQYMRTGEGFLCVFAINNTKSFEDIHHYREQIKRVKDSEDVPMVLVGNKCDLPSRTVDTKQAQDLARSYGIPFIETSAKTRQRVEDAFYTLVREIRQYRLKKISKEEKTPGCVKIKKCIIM

For `CN1CCCC2(CCN(C(=O)CCS)CC2)C1`, the percent labeling is, setting by setting: under setting [1], 20.3%; under setting [2], 31%; under setting [3], 45.7%; under setting [4], 36.7%; under setting [5], 46.1%; under setting [6], 20.8%. For the same compound, the percent labeling turned out to be 30.6% under setting [7], 32.9% under setting [8], 29.7% under setting [9] and 54.8% under setting [10].
Turning to `CN1CCc2nc3ccccc3c(C(=O)NCCS)c2C1`, the percent labeling runs as follows: under setting [11], 51.5%; under setting [1], 17.6%; under setting [2], 36.4%; under setting [3], 31.3%; under setting [4], 27.2%; under setting [5], 40.5%. Moreover, the percent labeling turned out to be 35% under setting [6]; 46.6% under setting [12]; 28.6% under setting [7]; 34.3% under setting [8]; 31.5% under setting [9]; 57.6% under setting [10].
For `CCOC(=O)C12CC(CNC(=O)CCS)(C1)OC2c1ccccc1` (configuration not stated), the percent labeling reads like this: under setting [1], 8.8%; under setting [2], 17.1%; under setting [3], 23.1%; under setting [4], 20.1%; under setting [5], 27.6%; under setting [6], 17.2%. Further, the percent labeling by setting is: under setting [7], 7.7%; under setting [8], 23.9%; under setting [9], 21.9%; under setting [10], 46.6%.
For `O=C(CCS)N1C[C@@H]2C[C@H](C1)c1cccc(=O)n1C2`, the percent labeling is 7% under setting [1]; 28.1% under setting [2]; 32.9% under setting [3]; 29.1% under setting [4]; 40.8% under setting [5]; 11.9% under setting [6]. The percent labeling stood at 16.8% under setting [7], 35.1% under setting [8], 33.3% under setting [9] and 48.5% under setting [10].
With `N#Cc1cc2c([nH]c1=O)CC1CCC2N1C(=O)CCS` (configuration not stated), the percent labeling reads like this: under setting [1], 10.1%; under setting [2], 31%; under setting [3], 37.3%; under setting [4], 32.1%; under setting [5], 37.2%; under setting [6], 21.5%. Moreover, the percent labeling runs as follows: under setting [7], 34.4%; under setting [8], 33.7%; under setting [9], 33.6%; under setting [10], 49.7%.
The compound `O=C(CCS)NCC12CC(CN1C1CC1)C2` returned a percent labeling under setting [1] of 20.6%; a percent labeling under setting [2] of 34.9%; a percent labeling under setting [3] of 45.4%; a percent labeling under setting [4] of 24.3%; a percent labeling under setting [5] of 49.5%; a percent labeling under setting [6] of 23.8%. Moreover, the percent labeling reads like this: under setting [7], 31.4%; under setting [8], 34.6%; under setting [9], 36.5%; under setting [10], 49.3%.
Take `Cc1c(C(=O)NCCS)c2ccccc2n1Cc1ccccc1`: the percent labeling reads like this: under setting [11], 54.8%; under setting [1], 12.5%; under setting [2], 14.9%; under setting [3], 10.5%; under setting [4], 12.5%; under setting [5], 8.6%. Besides, the percent labeling worked out at 27.7% under setting [6]; 24.3% under setting [12]; 10.7% under setting [7]; 10.9% under setting [8]; 5% under setting [9]; 10.1% under setting [10].
As for `O=C(NCCS)c1cn(Cc2ccccc2)c2ccccc12`, the percent labeling by setting is: under setting [11], 24.4%; under setting [1], 8.6%; under setting [2], 12.1%; under setting [3], 9.3%; under setting [4], 12.8%; under setting [5], 11.5%. The percent labeling amounted to 28.2% under setting [6]; 23.3% under setting [12]; 12.2% under setting [7]; 10.8% under setting [8]; 7.2% under setting [9]; 12.4% under setting [10].
As to `O=C(NCCS)C1CCCC2CCCN21` (configuration not stated), the percent labeling is, setting by setting: under setting [11], 40.7%; under setting [1], 24%; under setting [2], 43.6%; under setting [3], 43.5%; under setting [4], 36.2%; under setting [5], 43.3%. The percent labeling was 35.4% under setting [6]; 43.2% under setting [12]; 31% under setting [7]; 34.5% under setting [8]; 34.2% under setting [9]; 53% under setting [10].
`N#Cc1ccc(N2CC(C(=O)NCCS)CC2=O)cc1Cl` (configuration not stated) gave a percent labeling under setting [11] of 33.4%; a percent labeling under setting [1] of 10.4%; a percent labeling under setting [2] of 20.5%; a percent labeling under setting [3] of 22.1%; a percent labeling under setting [4] of 17.2%; a percent labeling under setting [5] of 18%. The percent labeling came to 29.1% under setting [6]; 33.2% under setting [12]; 16.3% under setting [7]; 15.6% under setting [8]; 11.5% under setting [9]; 20.9% under setting [10].
Compound `Cc1cc(NC(=O)CCS)cc(N2CCN(C)CC2)c1` had a percent labeling under setting [1] of 16%; a percent labeling under setting [2] of 43%; a percent labeling under setting [3] of 43.5%; a percent labeling under setting [4] of 38.9%; a percent labeling under setting [5] of 43.4%; a percent labeling under setting [6] of 42.4%. The percent labeling stood at 24.3% under setting [7], 34.1% under setting [8], 35.6% under setting [9] and 52.6% under setting [10].
Take `O=C(NCCS)C1CCC2CCCCN21` (configuration not stated): the percent labeling by setting is: under setting [11], 46.4%; under setting [1], 28.8%; under setting [2], 46.4%; under setting [3], 32.6%; under setting [4], 33.4%; under setting [5], 38.1%. In addition, the percent labeling is, setting by setting: under setting [6], 37.4%; under setting [12], 40.5%; under setting [7], 33%; under setting [8], 35.1%; under setting [9], 36.5%; under setting [10], 52.5%.

These data come from PubChem BioAssay AID2202238 (Ras Initiative Chemistry Research Team, Frederick National …, 2025).
